Measured values reported in the supplement of paper PMC11417369.
The other results are listed elsewhere or left out.

What follows are sequences tested on PfHDP1 homeodomain (GST-tagged) (assay: gcPBM binding intensity (ln(normalized median fluorescence intensity)); higher = stronger DNA binding).
Procedure, shortened: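 DNA-binding domains from P. falciparum, fused to GST and produced in E. coli, were put on an Agilent 4 × 180k double-stranded probe array for 1 h in 1× PBS holding 1% milk, 0.2 mg/ml BSA, 0.5% salmon testes DNA and 0.03% Triton X-100. Probes were primer-extended, 36 bp long and drawn from intergenic genomic regions, with negative controls included. After Alexa488 anti-GST antibody detection and a 488 nm scan, binding intensity was set as the highest Masliner-normalised natural-log median intensity across replicate spots of either probe orientation.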

| Sequence | gcPBM binding intensity (ln) |
| --- | --- |
| TTATAGGATCAAGCGCGTACATATCTTTATAAAAGA [XGTACX_site5775] | 6.31 |
| ATATATATATATGTGTGTACATATATGTGGATGGAT [XGTACX_site6240] | 9.24 |
| TTTTAAATCTTATATTCCCCACATAAATAGCTCTCT [GTGCAC_negctrl_site665] | 6.53 |
| ACAACAAAAATAAGCACACACAAATATACATACATA [CACACA_site7664] | 6.55 |
| ACATAAGAACATATTTGTACGTATATAAATTAAATA [XGTACX_site6127] | 6.42 |
| AAAATTTATATAAGCACACAAATATATATTTATATC [CACACA_site3291] | 6.56 |
| TTATTTTTGTTTTGAAGTACAAAAAAATATATTCTT [XGTACX_site6416] | 6.25 |
| AGTTTATAGTGATATTGTACATATATATATATATAT [XGTACX_site572] | 9.32 |
| TATTTATACTCAACTTTCTGTTATTCCAACTTTTTT [XGTACX_negctrl_site410] | 6.78 |
| TTATATATTAATAGTAGTACTATATTGAATCACCCC [XGTACX_site2868] | 7.33 |
| ACGCAATATTAACAAGTGCATTATAACACATAACAT | 9.31 |
| ATAACATTCTATGTTGCACACAAAGAGAAAAATTTA [CACACA_site9322] | 9.12 |
| TATACTTTATATATTTTGTATATATATTTTTTTTAT [TGCATGCA_negctrl_site530] | 6.31 |
| AATAAAAAGTAATAATAACGTATAATTTATTATACT [TGCATGCA_negctrl_site414] | 6.14 |
| TCTTGTTATTTAAATGCATGTTGATTTTAAAAAATT [TGCATGCA_site840] | 6.72 |
| GTAAATTATATAACAAATAAAAATGTACATATATAT [CACACA_negctrl_site408] | 6.84 |
| ATATATATAGATTGTACACACATTTATGCATATATA [CACACA_site3222] | 7.35 |
| ATGGACAAAAAATATATACACACGAGGAAACCAACA [CACACA_site3726] | 7.16 |
| CGTGGGAGCAGACACACACACACACGCATATTTATA [CACACA_site6290] | 6.56 |
| CATGCATACTACATCTGTACACATACATTATATTTA [XGTACX_site2495] | 7.17 |
| TTTTGTTTTTACGAATACTTTTTTAATTTTATTTAT [TGCATGCA_negctrl_site395] | 6.08 |
| ATATATATATATTATACACACAAAAATATTTTGTAT [CACACA_site266] | 8.71 |
| ATCTATGTTCCTTTTACACACATAATCTTTTTTTTA [CACACA_site5468] | 7.3 |
| AAATTTTCTTTTAAGTGTACGAAATTTAGTATTTCA [XGTACX_site7819] | 6.09 |
| TAAACAGTATGCAACGCATGCGTTGTTATATATAAA [TGCATGCA_site232] | 7.1 |
| ATGTATTTATTATTTAGTACACATTATTTTCTTATA [XGTACX_site6365] | 6.48 |
| TTTTTGTTTGTTCACGACTACATTATGTCATAAATG [CACACA_negctrl_site597] | 6.52 |
| TATATATAAATATATACACACATGAAAATAAATAAA [CACACA_site2514] | 6.71 |

| Sequence | gcPBM binding intensity (ln) |
| --- | --- |
| ATTTTTTTTTTTTTTTTTTTATTCTTAATTCATATA [CACACA_negctrl_site342] | 6.2 |
| ATAGTTATTTTATAGCGTACACAATAAATATATAAA [XGTACX_site4445] | 6.75 |
| CACAGAAATAGAGATACACACACACCGATATTTATG [CACACA_site9313] | 6.75 |
| GTCATATATTATAATAGTACATAAATAATTGATGCC [XGTACX_site3567] | 6.67 |
| TTTTTCTATATTTTCTTTTATAAAATATATAATTTT [GTGCAC_negctrl_site345] | 6.11 |
| ATATGATAAATTATATGTACTTAAAATATATTATAA [XGTACX_site5904] | 6.21 |
| TGGCAAAATAGGCACACACACATATACATCTATATT [CACACA_site6626] | 6.86 |
| TTTTTTTTTAGAAAAACATGCATGTCCTAAAAATAA [TGCATGCA_site684] | 6.45 |
| AAAAAAAAAAAAAAAAAAAAAAAAACAATGAATTTA [GTGCAC_negctrl_site698] | 7.07 |
| AGTAGATATAATTATAGTACTTTGATGTTTTCTTTA [XGTACX_site5038] | 6.28 |
| ATACATATATTTTTATGTACATATATTTTTTTTGTA [XGTACX_site4546] | 6.42 |
| TAAAGTACAGGAGTAAATTGAAAAAAAAAAAAAAAA [CACACA_negctrl_site1410] | 6.22 |
| ATAAATAAATAAATACGTACATATATATATATATAT [XGTACX_site8838] | 9.5 |
| TATAATATTCCTTTTTAACACACATATGAACAAATA [CACACA_site7932] | 6.77 |
| GTTATACACATATATACACACATATGTAGATATATA [CACACA_site7529] | 7.47 |
| TTGATATCTTTTTTTTGTACATATATTTATAAGTAA [XGTACX_site3538] | 6.71 |
| TTTTTTTAAATTATATGTACATAATTTTAATTTTAT [XGTACX_site5086] | 6.43 |
| TTTTAGAGTGATATATATTAACTTTTAATAAAAAAA [CACACA_negctrl_site611] | 5.99 |
| AAAATATAAGCCACTACACACATATATAAATGTATA [CACACA_site2639] | 6.38 |
| AGGTCCTACACCAATAAATATCATATATATATTATA [CACACA_negctrl_site568] | 6.35 |
| TTATAACAAAAAATTAAAGAAAGAGAATAAGTGAAA [CACACA_negctrl_site975] | 6.77 |
| TTAACTATAATAAAATGTACATATGTAACATATATA [XGTACX_site7790] | 6.45 |
| TTGTACATCTTTTGCACACGTAATGTTATTAAAATA [CACACA_site4827] | 10.7 |
| TGTATATTTGTTGTTACACACATATATTTTTTTTTT [CACACA_site128] | 6.6 |
| TTACCTATTCTAAAATGTACACATTATATATGTGCT [XGTACX_site5776] | 6.56 |
| ACATGTTTCATATGTTGTACTAACTTAAATATAAAT [XGTACX_site6412] | 6.37 |
| ATGATTTTTTTTATTTTTTAGCTAGAGCTAGCTTAT [CACACA_negctrl_site433] | 6.3 |
